Laboratory results taken from PubChem BioAssay AID540267 (National Center for Advancing Translational Sciences (NCATS), 2011).
Values joined by “and” are separate entries in the source; they are usually repeats but may differ in a detail not shown here. Equal entries are not always repeated. Hit rate of the full screen: of about 340,000 compounds, about 530 (0.16%) were called active. Inconclusive means that the source gave no clear call. Such entries were picked first, then a sample of the others. Cut-off read from the data, not from the text of the source: active = activity change below about -80%; inconclusive = between about -30% and that limit; inactive = weaker than that.

Assay: Small Molecules that selectively kill Giardia lamblia: qHTS;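 note: parasites exposed to compound for two days anaerobically before the ATP read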
Conditions: Giardia lamblia trophozoite viability; at 7.66 µM; hits give low values
In short: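 Compounds were tested on trophozoites seeded at 100 cells/well and held 48 hrs at 37 deg C anaerobically. An ATP-based luminescent kit measured the remaining live cells.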
% is set by controls: 0 for no effect and ±100 for the full control effect.

Structure (SMILES) | activity change
COc1ccc(C2CC(c3ccccc3C)n3nc(N)nc3N2)cc1 (stereo unspecified) | inconclusive: -32.1% [inhibitor]
O=C(O)C1=C[C@@H](c2coc3ccccc3c2=O)C[C@@H](OCCCCO)O1 | inconclusive: -32.7% [inhibitor]
O=C(c1nn(Cc2ccccc2)c(=O)c2ccccc12)N1CCc2ccccc2C1 | inconclusive: -41.2% [inhibitor]
CC(O)CSc1nc2c(c(=O)n(C)c(=O)n2C)n1CCCc1ccccc1 (stereo unspecified) | inconclusive: -34.9% [inhibitor]
O=C(O)c1ccc(N2CCCCCC2)c(N2C(=O)c3ccccc3C2=O)c1 | inconclusive: -33.6% [inhibitor]
CC(C)(C)CNC(CO)C12CC3CC(CC(C3)C1)C2 (stereo unspecified) | inconclusive: -32.3% [inhibitor]
COc1ccc(CNC(=O)c2c(C)oc3c2C(=O)c2ccccc2C3=O)cc1 | inconclusive: -41.3% [inhibitor]
CC(C)C[C@H]1CN=C(Nc2ccccc2)N1CCCC1CCCCC1 | inactive: -6.03%
COC(=O)C1=C(N)Oc2cc(C)n(Cc3ccco3)c(=O)c2C1c1cccc(Cl)c1 (stereo unspecified) | inconclusive: -30.5% [inhibitor]
O=C(O)/C(=C\c1cccc(OCc2ccccc2)c1)c1ccc(F)cc1 | inactive: -2.79%
CCN1C/C(=C\c2cccc([N+](=O)[O-])c2)C(=O)/C(=C/c2cccc([N+](=O)[O-])c2)C1 | inconclusive: -40.6% [inhibitor]
C/C(=N\NC(=O)C1COc2ccccc2O1)c1ccccn1 (stereo unspecified) | inactive: -29.5%
O=C(Nc1ccc2c(c1)OCCO2)C(=O)c1c[nH]c2ccccc12 | inconclusive: -47.3% [inhibitor]
Clc1ccc(Cn2ccc3ccccc32)cn1 | inactive: -13.3% and inactive: 10.6%
N#C/C(=C\c1ccccn1)c1nc2ccccc2s1 | inactive: 10.8%
COc1ccc(NC(=O)CNc2ccc(C#N)cc2)cc1 | inconclusive: -35.4% [inhibitor]
CC(=O)Nc1ccc(C2=NN(Cc3nnc(-c4ccccc4)o3)C(=O)SC2)cc1 | inactive: 15.3%
COc1cccc(N=c2oc3ccccc3cc2-c2nc3ccccc3[nH]2)c1 | inconclusive: -34.5% [inhibitor]
CNC(=S)Nc1sc2c(c1C(=O)OC)CCC2 | inactive: 0.328%
COCCCNC(=O)[C@H](Cc1c[nH]c2ccccc12)NC(=O)OCc1ccccc1 | inconclusive: -34% [inhibitor]
CN(Cc1ccc(Cl)cc1Cl)C(=O)CNC(=O)c1ccco1 | inactive: -4.46%
COc1ccc(Oc2nc(-c3ccncc3)nc3ccccc23)cc1 | inconclusive: -37.4% [inhibitor]
CC(C)(O)C1Cc2cc(/C=C/C(=O)O)c(O)cc2O1 (stereo unspecified) | inactive: -9.2%
CC(C)C(=O)Nc1cccc(NC(=S)NC(=O)c2ccc(Cl)cc2)c1 | inconclusive: -30.5% [inhibitor]
Cc1cc(S(=O)(=O)NCC(C)C)ccc1OCC(=O)NCC1CCCO1 (stereo unspecified) | inconclusive: -32.9% [inhibitor]
O=C(NC1CC1)C1=C[C@H](C2CCCCC2)C[C@H](OCc2ccc(CO)cc2)O1 | inconclusive: -37% [inhibitor]

Structure (SMILES) | activity change
COc1ccc(-c2nc(-c3ccc(NC(=O)c4ccncc4)cc3)no2)cc1OC | inactive: -19.5%
C/C(=N\OC(=O)NC(C)C)c1sc(-c2ccccc2)nc1C | inactive: 29.4%
CN(C)NC(=S)Nc1cccc(Cl)c1 | inconclusive: -34.3% [inhibitor]
CN(C)/[N+]([O-])=N/Oc1cc(O/[N+]([O-])=N/N2CCCC2CO)c([N+](=O)[O-])cc1[N+](=O)[O-] (stereo unspecified) | inconclusive: -37.4% [inhibitor]
COc1ccccc1/C=N/NC(=O)c1nnn(-c2nonc2N)c1-c1cccs1 | inconclusive: -31.6% [inhibitor]
O=c1[nH]c(=S)[nH]cc1Oc1ccc(Cl)cc1Cl | inactive: -22.6%
CCc1nc(N=Nc2c(O)[nH]c3ccccc23)c2c3c(sc2n1)CCC3 | inconclusive: -38.6% [inhibitor]
Cc1ccc(-c2ccc(/C=N/N3C(=O)C4C5C=CC(CC5)C4C3=O)o2)c([N+](=O)[O-])c1 (stereo unspecified) | active: -102%
CCOC(=O)c1cn(-c2c(Cl)cccc2Cl)c2cc(Cl)c([N+](=O)[O-])cc2c1=O | inconclusive: -36.8% [inhibitor]
CCc1nnc(NC(=O)c2cccc(C(=O)Nc3nnc(CC)s3)n2)s1 | inactive: -4.17%
Cc1ccc2c(c1)c1c3n2CCN(C=O)C3CCC1 (stereo unspecified) | inactive: 4.69%
Cc1ccn2cc(-c3ccc(O)c(O)c3)nc2c1 | inconclusive: -43% [inhibitor]
Cc1cc(C)cc(NC(=O)CN2CCc3cc4c(cc3C2C)OCCCO4)c1 (stereo unspecified) | inactive: -21.5%
COc1ccc(C=NNc2nc3ccccc3s2)cc1 | inconclusive: -38% [inhibitor]
O=C(NCc1ccncc1)c1cccc(S(=O)(=O)Nc2ccc(SC(F)F)cc2)c1 | inconclusive: -30.5% [inhibitor]
Cc1onc(-c2ccccc2)c1C(=O)c1c[nH]c(C(=O)NCCCN2CCOCC2)c1 | inactive: -2.61%
CCN(CC)CCOC(=O)c1ccc(Cl)cc1Cl | inactive: -9.22%
COCc1ccc(C(=O)N2CCCC(C(=O)c3ccc(Cl)cc3C)C2)o1 (stereo unspecified) | inconclusive: -46.5% [inhibitor]
O=C(Nc1ncc([N+](=O)[O-])s1)c1cccc([N+](=O)[O-])c1 | active: -92.8%
CCC(C)Nc1nc(C)nc2c1oc1ccccc12 (stereo unspecified) | inconclusive: -33.7% [inhibitor]
CCOC(=O)c1c(C)[nH]c(C)c1C(=O)CN1C(=O)NC2(CCC(C)CC2)C1=O (stereo unspecified) | inactive: -5.92%
Cc1oc(-c2ccccc2F)nc1CS(=O)CC(=O)NCc1ccc(F)cc1 (stereo unspecified) | inactive: -27.9%
COc1ccc(CCNC(=O)CN(C2CCCCC2)S(C)(=O)=O)cc1OC | inactive: 34.3%
C=CCNc1ncnc2sc(SC)nc12 | inconclusive: -54.5% [inhibitor]
FC(F)(F)c1cccc(NC(=S)NC2CCCC2)c1 | inconclusive: -31.4% [inhibitor]
